Assay results as given in PubChem BioAssay (Tox21).
Several values for one entry are separate records, joined by “and”; a condition that tells them apart may be missing. Equal values may be shown once. This list was built around the results that the source calls inconclusive (neither active nor inactive); the mix of calls is not that of the screen. For some assays here: Potencies of inconclusive entries are doubtful fits and often do not repeat. More than one record can exist for a structure, and the calls need not agree. Activity calls are given as the source filed them. Unless noted, calls come from the whole dose curve; as a rule, active = well fitted curve in the direction sought with a large enough effect in the repeat runs; inconclusive = weak or mixed curves; inactive = no such curve, though single readings can be large; an effect the other way counts as inactive or inconclusive.

Legend:
[1] = biological target: Estrogen receptor beta (Homo sapiens) (UniProt Q92731); assay: qHTS assay to identify small molecule agonists of the estrogen receptor beta (ER-beta) signaling pathway (AID 1259377; active = well fitted activation curve with a large enough effect in the signal ratio in the repeat runs, not every such curve was filed as active; inconclusive = weak or mixed curves, or effect the other way; the % refers to the signal ratio; note: potency is the fitted concentration of half-maximal effect; for activation: % is set by controls: 0 for no effect and ±100 for the full control effect); conditions: ER-beta-UAS-bla HEK293T, beta-lactamase FRET ratio, 16 h; activation: at 92.4 µM (top of the series) unless noted
Chain of UniProt Q92731 (Q92731 whole entry, looked up): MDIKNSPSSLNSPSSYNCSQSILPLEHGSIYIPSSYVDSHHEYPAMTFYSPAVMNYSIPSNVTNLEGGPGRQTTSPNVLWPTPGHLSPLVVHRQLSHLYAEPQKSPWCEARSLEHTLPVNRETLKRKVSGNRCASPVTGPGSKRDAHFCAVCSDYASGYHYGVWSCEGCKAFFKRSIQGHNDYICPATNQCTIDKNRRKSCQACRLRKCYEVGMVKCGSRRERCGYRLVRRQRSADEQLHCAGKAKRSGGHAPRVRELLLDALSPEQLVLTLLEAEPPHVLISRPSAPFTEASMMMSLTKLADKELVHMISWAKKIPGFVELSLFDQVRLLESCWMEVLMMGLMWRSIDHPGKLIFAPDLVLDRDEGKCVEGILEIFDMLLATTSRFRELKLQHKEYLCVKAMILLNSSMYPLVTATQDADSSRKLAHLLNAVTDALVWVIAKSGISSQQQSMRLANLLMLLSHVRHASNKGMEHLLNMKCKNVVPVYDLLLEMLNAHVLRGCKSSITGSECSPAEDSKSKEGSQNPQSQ
How it was run: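 Read-out: beta-lactamase FRET fluorescence. Cell line: ER-beta-UAS-bla HEK293T in 2% charcoal-stripped FBS. Exposure: 16 hr at 37C. Substrate step: 2 h at room temperature.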

[2] = biological target: Estrogen receptor beta (Homo sapiens) (UniProt Q92731); assay: qHTS assay to identify small molecule antagonists of the estrogen receptor beta (ER-beta) signaling pathway (AID 1259378; active = well fitted inhibition curve with a large enough effect in the signal ratio in the repeat runs, not every such curve was filed as active; inconclusive = weak or mixed curves, or effect the other way; inactive = no such curve, though single readings can be large or run the other way; the % refers to the signal ratio; note: potency is the fitted concentration of half-maximal effect; for activity, negative = inhibition: % is set by controls: 0 for no effect and ±100 for the full control effect); conditions: ER-beta-UAS-bla HEK293T, beta-lactamase FRET ratio, 16 h
How it was run: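 ER-beta-UAS-bla HEK293T cells in 2% charcoal-stripped FBS medium treated with compound plus 1nM final 17-beta-estradiol for 16 hr at 37C. Beta-lactamase reporter read by FRET substrate fluorescence after 2 hours at room temperature.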

[3] = qHTS assay to identify small molecule agonists of the androgen receptor (AR) signaling pathway in the presence of an antagonist - cell viability counter screen (AID 1259379); note: potency is the fitted concentration of half-maximal effect; nearly all actives have a fitted effect of over 25% in size
How it was run: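 Cytotoxicity is assessed by CellTiter-Fluor in MDA-kb2 cells carrying an MMTV-driven luciferase reporter. Cells receive 3.0uM nilutamide plus compounds at 15 concentrations and incubate 16 hr at 37C without CO2 before fluorescence reading.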

[4] = qHTS assay to identify small molecule antagonists of the estrogen receptor beta (ER-beta) signaling pathway - cell viability counter screen (AID 1259382); note: potency is the fitted concentration of half-maximal effect; nearly all actives have a fitted effect of over 55% in size
How it was run: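 Cytotoxicity counter screen multiplexed with the beta-lactamase antagonist assay: GripTite HEK293T ER-beta-bla cells were treated 16 hr with test chemicals in the presence of 1nM 17-beta-estradiol, and viability was measured by CellTiter-Glo.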

[5] = biological target: Thyrotropin receptor (Homo sapiens) (UniProt P16473); assay: qHTS assay to identify small molecule antagonists of the thyroid stimulating hormone receptor (TSHR) signaling pathway (AID 1259385; calls by dose curve; note: nearly all actives have a fitted effect of over 20% in size; note: potency is the fitted concentration of half-maximal effect; for activity change, negative = inhibition: % is set by controls: 0 for no effect and ±100 for the full control effect); conditions: TSHR-HEK293 cAMP HTRF, TSH-stimulated antagonist mode; activity change, negative = inhibition: at 92.4 µM (top of the series) unless noted
Chain of UniProt P16473 (P16473 whole entry, looked up): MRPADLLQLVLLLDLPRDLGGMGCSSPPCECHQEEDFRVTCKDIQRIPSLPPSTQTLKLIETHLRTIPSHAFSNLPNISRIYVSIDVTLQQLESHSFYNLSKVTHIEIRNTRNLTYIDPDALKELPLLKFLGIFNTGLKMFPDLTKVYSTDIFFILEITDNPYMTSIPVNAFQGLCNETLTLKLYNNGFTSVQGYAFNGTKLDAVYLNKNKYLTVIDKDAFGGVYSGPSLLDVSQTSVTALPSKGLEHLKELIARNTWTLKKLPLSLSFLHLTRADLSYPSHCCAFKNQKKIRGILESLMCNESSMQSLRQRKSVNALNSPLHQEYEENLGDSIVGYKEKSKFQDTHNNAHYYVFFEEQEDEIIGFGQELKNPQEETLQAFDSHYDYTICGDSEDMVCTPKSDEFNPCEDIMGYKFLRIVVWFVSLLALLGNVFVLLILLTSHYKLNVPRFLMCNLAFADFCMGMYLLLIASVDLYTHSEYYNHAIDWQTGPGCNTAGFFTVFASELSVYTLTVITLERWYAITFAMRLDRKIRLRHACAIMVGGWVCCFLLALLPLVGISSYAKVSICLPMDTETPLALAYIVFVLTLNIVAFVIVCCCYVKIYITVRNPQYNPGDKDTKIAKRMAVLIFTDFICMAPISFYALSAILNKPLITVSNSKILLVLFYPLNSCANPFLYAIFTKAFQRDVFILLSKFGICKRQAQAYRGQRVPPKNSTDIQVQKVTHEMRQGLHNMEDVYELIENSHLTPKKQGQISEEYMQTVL
How it was run: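 TSHR-HEK293 cells (800/well) plated 18 h, then compounds with Ro20-1724 and TSH at 1.5 ng/mL final, 30 min at room temperature. cAMP quantified by HTRF (cAMP-d2/anti-cAMP-cryptate, 1 h); 15 concentrations in triplicate.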

[6] = qHTS assay to identify small molecule agonists of the estrogen receptor alpha (ER-alpha) signaling pathway in the presence of an antagonist - cell viability counter screen (AID 1259386);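 note: potency is the fitted concentration of half-maximal effect; cells exposed to compounds for 22 h at 37 °C before the viability read; nearly all actives have a fitted effect of over 30% in size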
How it was run: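 Cytotoxicity was measured in parallel with the ERE-luciferase agonist screen, in the same wells. The cells were VM7Luc4E2, which endogenously express ER-alpha, and treatment was with compounds plus 10.0nM ICI-182,780 for 22hr.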

[7] = biological target: Progesterone receptor (Homo sapiens) (UniProt P06401); assay: qHTS assay to identify small molecule antagonists of the progesterone receptor (PR) signaling pathway (AID 1346795; active = well fitted inhibition curve with a large enough effect in the signal ratio in the repeat runs, not every such curve was filed as active; inconclusive = weak or mixed curves; the % refers to the signal ratio; note: potency is the fitted concentration of half-maximal effect); conditions: PR-UAS-bla HEK293T, beta-lactamase FRET ratio, 16 h; activity change, negative = inhibition: at 92.4 µM (top of the series) unless noted
Chain of UniProt P06401 (P06401 whole entry, looked up): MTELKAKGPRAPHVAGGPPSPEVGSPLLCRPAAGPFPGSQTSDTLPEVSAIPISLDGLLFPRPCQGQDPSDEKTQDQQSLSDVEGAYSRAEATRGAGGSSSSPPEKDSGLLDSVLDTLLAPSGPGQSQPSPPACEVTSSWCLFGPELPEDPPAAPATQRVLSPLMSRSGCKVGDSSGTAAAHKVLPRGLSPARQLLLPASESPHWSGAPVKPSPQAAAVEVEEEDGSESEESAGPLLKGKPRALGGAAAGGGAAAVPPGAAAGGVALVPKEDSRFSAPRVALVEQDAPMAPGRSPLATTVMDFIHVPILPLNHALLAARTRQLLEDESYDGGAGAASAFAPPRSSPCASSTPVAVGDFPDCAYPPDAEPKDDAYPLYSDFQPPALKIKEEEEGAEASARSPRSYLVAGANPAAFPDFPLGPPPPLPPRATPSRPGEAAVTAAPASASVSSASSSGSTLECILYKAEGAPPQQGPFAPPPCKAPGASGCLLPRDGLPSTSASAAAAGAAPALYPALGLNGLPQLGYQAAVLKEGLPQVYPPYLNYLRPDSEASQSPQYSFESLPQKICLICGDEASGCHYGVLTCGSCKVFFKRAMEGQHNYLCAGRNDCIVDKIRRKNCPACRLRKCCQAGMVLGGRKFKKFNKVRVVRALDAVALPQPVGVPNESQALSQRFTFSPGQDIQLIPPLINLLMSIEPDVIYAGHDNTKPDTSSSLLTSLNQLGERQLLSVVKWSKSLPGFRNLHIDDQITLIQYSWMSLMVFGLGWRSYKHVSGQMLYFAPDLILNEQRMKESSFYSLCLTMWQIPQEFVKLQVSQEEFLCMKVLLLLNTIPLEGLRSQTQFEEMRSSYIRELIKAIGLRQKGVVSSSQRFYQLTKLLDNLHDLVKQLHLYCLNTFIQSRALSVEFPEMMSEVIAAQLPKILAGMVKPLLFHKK
How it was run: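 In HEK293T cells bearing the PR-UAS-bla reporter, compound effects on promegestone-driven (1 nM) beta-lactamase expression are assessed after 16 hr using a fluorescent FRET substrate incubated 2 hr at room temperature.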

[8] = qHTS assay to identify small molecule agonists of the estrogen receptor beta (ER-beta) signaling pathway - cell viability counter screen (AID 1259380); note: potency is the fitted concentration of half-maximal effect; nearly all actives have a fitted effect of over 30% in size
How it was run: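 Cytotoxicity is measured in parallel with the reporter screen: after 16 hr compound exposure at 37C and a 2 hr LiveBLAzer step, CellTiter-Glo is added to the same ER-beta-UAS-bla HEK293T wells and luminescence read after 30 min.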

[9] = qHTS assay to identify small molecule agonists or antagonists of the thyroid stimulating hormone receptor (TSHR) signaling pathway - wild type cell line counter screen (AID 1259384; calls by dose curve; note: % is set by controls: 0 for no effect and ±100 for the full control effect); conditions: HEK293 wild type, cAMP HTRF counter-screen; cAMP activity change: at 92.4 µM (top of the series), active compounds read high unless noted
How it was run: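 Wild-type Hek293 cells, 800/well, 18 h at 37C, then compound with Ro20-1724 for 30 min RT. cAMP by HTRF (cAMP-d2/anti-cAMP cryptate), 1 h RT, fluorescence read. 15 concentrations, triplicates.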

[10] = biological target: Progesterone receptor (Homo sapiens) (UniProt P06401); assay: qHTS assay to identify small molecule agonists of the progesterone receptor (PR) signaling pathway (AID 1346784; calls by dose curve; note: nearly all actives have a fitted effect of over 30% in size; note: potency is the fitted concentration of half-maximal effect); conditions: PR-UAS-bla HEK293T, beta-lactamase FRET ratio, 16 h; activation: at 92.4 µM (top of the series) unless noted
How it was run: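 Compounds were tested for PR agonism in HEK 293T cells bearing a beta-lactamase gene under UAS control. Treatment lasted 16 hr at 37C; signal came from fluorescence of a FRET substrate.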

[11] = qHTS assay to identify small molecule antagonists of the progesterone receptor (PR) signaling pathway - cell viability counter screen (AID 1346798); note: potency is the fitted concentration of half-maximal effect; nearly all actives have a fitted effect of over 50% in size
How it was run: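 Following a 4 hr attachment, PR-UAS-bla HEK293T cells in charcoal-stripped FBS medium were exposed to compounds with R5020 for 16 hr; CellTiter-Glo was added and luminescence read after 30 min at room temperature.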

[12] = qHTS assay to identify small molecule agonists of the progesterone receptor (PR) signaling pathway - cell viability counter screen (AID 1346799; calls by dose curve; note: potency is the fitted concentration of half-maximal effect; nearly all actives have a fitted effect of over 45% in size)
How it was run: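 Here, 3,000 PR-UAS-bla HEK293T cells per well were treated with compounds for 16 hr after a 6 hr preincubation at 37C and 5% CO2; cell viability is the CellTiter-Glo luminescence signal.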

[13] = qHTS assay to identify small molecule antagonists of the TGF-beta/Smad signaling pathway - cell viability counter screen (AID 1346824); note: potency is the fitted concentration of half-maximal effect; nearly all actives have a fitted effect of over 50% in size
How it was run: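 SBE-bla HEK 293T cells, incubated overnight, then compound plus 0.25 ng/mL TGF-beta1 (stock added) for 5 hr at 37 C. Viability was read in the same wells by CellTiter-Glo luminescence after 30 min at room temperature.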

[14] = qHTS assay to identify small molecule agonists of the TGF-beta/Smad signaling pathway - cell viability counter screen (AID 1346829); note: potency is the fitted concentration of half-maximal effect; nearly all actives have a fitted effect of over 45% in size
How it was run: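 SBE-bla HEK 293T cells plated overnight, compound exposure 5 hr at 37 C. Viability read in the same wells by CellTiter-Glo luminescence after 30 min at room temperature, following the beta-lactamase read.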

[15] = qHTS assay to identify small molecule antagonists of the TGF-beta/Smad signaling pathway (AID 1346924; active = well fitted inhibition curve with a large enough effect in the signal ratio in the repeat runs, not every such curve was filed as active; inconclusive = weak or mixed curves; the % refers to the signal ratio; note: potency is the fitted concentration of half-maximal effect); conditions: SBE-bla HEK293T, TGF-beta/Smad reporter, beta-lactamase ratio; activity, negative = inhibition: at 76.8 µM (top of the series) unless noted
How it was run: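 Read-out was FRET-substrate fluorescence (405 nm excitation; 460 and 530 nm emission) after 2 h at room temperature. Before that, cells carrying a Smad-binding-element beta-lactamase reporter in HEK 293T had been stimulated 5 h at 37 C with TGF-beta1 (0.25 ng/mL addition solution) in the presence of test compound.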

[16] = qHTS assay to identify small molecule agonists of the TGF-beta/Smad signaling pathway (AID 1346859; active = well fitted activation curve with a large enough effect in the signal ratio in the repeat runs, not every such curve was filed as active; inconclusive = weak or mixed curves; the % refers to the signal ratio; note: potency is the fitted concentration of half-maximal effect); conditions: SBE-bla HEK293T, TGF-beta/Smad beta-lactamase reporter, 5 h; activation: at 76.8 µM (top of the series) unless noted
How it was run: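 Each well held 4,000 SBE-bla HEK 293T cells incubated overnight before compound addition; 5 hr later the cleavable FRET substrate went on for 2 hr at room temperature, and fluorescence was read at two emissions.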

[17] = activity, negative = inhibition: at 92.4 µM (top of the series) unless noted
Tags give direction and shape of the fitted curve or compound fluorescence and quenching.

NCCNCCO
inconclusive: Potency [1] 34.8 µM [activator, partial curve, poor fit]

CC[C@H](C)COC(=O)/C=C/c1ccc(N=Cc2ccc(OC)cc2)cc1
active: Potency [2, 17] 54.4 µM | Potency [7] 30.6 µM
inconclusive: Potency [1] 27.3 µM [fluorescent, single point] | Potency [3] 61 µM [cytotoxic, partial curve, poor fit] | Potency [4] 38.5 µM [cytotoxic, partial curve] | activity change, negative = inhibition [5] -12.6% | Potency [6] 54.4 µM [cytotoxic, partial curve]

CC[C@H]1OC(=O)[C@H](C)[C@@H](O[C@H]2C[C@@](C)(OC)[C@@H](O)[C@H](C)O2)[C@H](C)[C@@H](O[C@@H]2O[C@H](C)C[C@H](N(C)C)[C@H]2O)[C@](C)(O)C[C@@H](C)C(=O)[C@H](C)[C@@H](O)[C@]1(C)O
inactive: Potency [1]

Cn1cnc([N+](=O)[O-])c1Sc1ncnc2nc[nH]c12
inactive: Potency [1] | activity, negative = inhibition ([2]; at 42.5 µM (top of the series)) 2.29%
inconclusive: activity, negative = inhibition [2, 17] -40.8% | Potency [4] 6.82 µM [cytotoxic] | cAMP activity change [9] 0.503% | Potency [5] 68.2 µM [phenotype inactive, partial curve, poor fit] | Potency [6] 12.1 µM [cytotoxic] | activation [10] 44.4% | activity change, negative = inhibition [7] -11.2% [phenotype inactive] | Potency [11] 6.08 µM [cytotoxic, full curve] | Potency [13] 4.86 µM [cytotoxic] | Potency [14] 8.66 µM [cytotoxic] | Potency [15] 43.4 µM [fluorescent, partial curve]
active: Potency [8] 4.83 µM and 8.41 µM | Potency [12] 3.83 µM

Nc1ccc2cc3ccccc3cc2c1
inconclusive: Potency [1] 27.8 µM [fluorescent, partial curve] and 27.3 µM [fluorescent, partial curve] | Potency [2, 17] 44 µM [fluorescent, partial curve] and 54.5 µM [fluorescent, partial curve] | Potency [3] 49.4 µM [rising, partial curve] | Potency [8] 698 nM [cytotoxic, full curve] and 13.7 µM [cytotoxic, partial curve] | Potency [4] 19.3 µM [cytotoxic, full curve, poor fit] | Potency [6] 27.3 µM [cytotoxic, partial curve] | Potency [10] 62.2 µM [fluorescent, single point] and 30.6 µM [fluorescent, partial curve] | Potency [11] 61.1 µM [cytotoxic, partial curve, poor fit] | Potency [12] 6.98 µM [cytotoxic, single point] | Potency [16] 19.8 µM [fluorescent, partial curve] and 21.9 µM [fluorescent, partial curve] | Potency [15] 22.3 µM [fluorescent, partial curve] and 19.5 µM [fluorescent, partial curve]

O=C(O)C[C@H](NC(=O)OCc1ccccc1)C(=O)O
inactive: Potency [1]

Cc1ccc(Cl)c(Nc2ccccc2C(=O)O)c1Cl
inconclusive: Potency [1] 8.41 µM [fluorescent, full curve] | Potency [2, 17] 11.9 µM [rising, partial curve] | Potency [8] 21.1 µM [cytotoxic, partial curve] | Potency [4] 21.1 µM [cytotoxic, partial curve, poor fit] | activity change, negative = inhibition [7] -38.9% [at 42.5 µM] | Potency [16] 26.8 µM [rising, partial curve]

Oc1ccc(Sc2ccc(O)cc2)cc1
inconclusive: Potency [2, 17] 72 µM [inhibitor, single point] | Potency [8] 20.3 µM [cytotoxic, partial curve] | activity change, negative = inhibition [5] 11.8% | Potency [10] 40.5 µM [cytotoxic] | Potency [11] 64.2 µM [rising, single point] | Potency [12] 45.4 µM [rising, partial curve]
active: Potency [1] 6.42 µM | Potency [7] 18.1 µM
